The whole screen tested about 390,000 compounds, of which about 4,700 (1.2%) were called active. Inconclusive means that the source gave no clear call. Such entries were picked first, then a sample of the others. Calls come from the whole dose curve; as a rule, active = well fitted inhibition curve with a large enough effect; inconclusive = small, poorly fitted or top-dose-only effect, or another doubt; inactive = no such curve, though single readings can be large or run the other way. Potencies of inconclusive entries are doubtful fits and often do not repeat.
The compounds below were run against DNA polymerase eta (Homo sapiens) (UniProt Q9Y253) (assay: qHTS for Inhibitors of Polymerase Eta). Details: recombinant Pol eta, fluorescent DNA replication assay; series mostly up to 114 µM; activity change, negative = inhibition: at the top concentration.
UniProt Q9Y253, sequence (Q9Y253 whole entry, looked up): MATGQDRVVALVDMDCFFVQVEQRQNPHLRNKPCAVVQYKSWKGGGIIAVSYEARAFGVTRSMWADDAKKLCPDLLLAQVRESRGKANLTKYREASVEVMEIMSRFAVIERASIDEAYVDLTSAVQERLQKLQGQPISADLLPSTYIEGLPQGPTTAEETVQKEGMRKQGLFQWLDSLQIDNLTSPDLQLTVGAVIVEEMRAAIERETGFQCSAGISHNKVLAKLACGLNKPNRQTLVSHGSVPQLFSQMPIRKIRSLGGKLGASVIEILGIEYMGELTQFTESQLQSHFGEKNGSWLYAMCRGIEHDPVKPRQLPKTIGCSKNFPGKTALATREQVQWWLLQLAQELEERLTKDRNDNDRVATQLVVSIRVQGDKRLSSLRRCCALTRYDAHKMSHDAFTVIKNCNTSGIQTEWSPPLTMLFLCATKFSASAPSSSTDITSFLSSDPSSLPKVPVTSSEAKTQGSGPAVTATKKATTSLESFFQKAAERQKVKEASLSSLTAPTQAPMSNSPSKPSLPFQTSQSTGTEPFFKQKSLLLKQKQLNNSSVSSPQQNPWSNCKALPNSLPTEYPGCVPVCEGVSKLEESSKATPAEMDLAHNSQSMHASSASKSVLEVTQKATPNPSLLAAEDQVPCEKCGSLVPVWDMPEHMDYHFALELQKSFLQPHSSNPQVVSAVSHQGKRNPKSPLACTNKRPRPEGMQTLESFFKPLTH
How it was run: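 Pol eta at 10 nM preincubated with compounds 15 min at room temperature; reaction started with fluorescent substrate (50 nM final) and read kinetically at 0 and 10 min.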
In the case of O=C(N/N=C\c1ccc(OC(=O)c2cccs2)cc1)c1ccc(Cl)cc1, the Potency is reported as active: 3.16 µM. For Cc1cc(C)c2c(=N)c3ccccc3n(CCCCCCCCn3c4ccccc4c(=N)c4c(C)cc(C)nc43)c2n1, the Potency was inconclusive: 10 µM [inhibitor, partial curve]. With Nc1[nH]n2c(=O)c3c(nc2c1N=Nc1ccccc1)CCCC3 the Potency was inconclusive: 11.2 µM [inhibitor, full curve, poor fit]. In the case of CC(=O)Nc1ccc(S(=O)(=O)NC(CSc2ccc(C(=O)O)cc2[N+](=O)[O-])C(=O)O)cc1 (stereo not drawn), the Potency is reported as inconclusive: 14.1 µM [inhibitor, full curve, poor fit]. CN(CC(=O)Nc1ccc(Cl)cc1)C(=O)CCc1nc2sc3c(c2c(=O)[nH]1)CCCC3 was tested, and the Potency was inconclusive: 35.5 µM [inhibitor, partial curve]. In the case of Cc1cnc(NC(=O)/C=C/c2ccc(Br)o2)s1, the Potency is reported as inconclusive: 39.8 µM [inhibitor, partial curve, poor fit]. For Cc1ccc(C)c(Nc2nn3c(=O)c4ccc(C(=O)NCc5cccs5)cc4nc3s2)c1, the Potency was inconclusive: 89.1 µM [inhibitor, single point]. With CSc1ccc(C=NNc2ccc(S(=O)(=O)Nc3ccccc3C(=O)O)cc2[N+](=O)[O-])cc1 the Potency was inconclusive: 5.01 µM [inhibitor, full curve, poor fit]. For CC(C)Cn1c(N)c(C(=O)COC(=O)C2Cc3ccccc3CN2S(C)(=O)=O)c(=O)n(C)c1=O (stereo not drawn), the Potency was active: 22.4 µM. For O=C(NCCO)C(=O)NCC1CCCN1S(=O)(=O)c1cccs1 (stereo not drawn), the Potency was inconclusive: 0.708 µM [inhibitor, partial curve, poor fit]. In the case of COc1ccc2cc(C(=O)CS(=O)(=O)c3ccccc3)c(=O)oc2c1, the “activity change, negative = inhibition” value is reported as inactive: -5.1%. For CCOc1ccc(CCNC(=O)Cn2ncn3nc(-c4ccc(OC)cc4)cc3c2=O)cc1OCC, the Potency was inconclusive: 31.6 µM [inhibitor, partial curve, poor fit]. For COc1ccc(S(=O)(=O)CCC(=O)NC2CCCCC2)cc1, the Potency was inconclusive: 35.5 µM [inhibitor, partial curve, poor fit]. For C[N+]1=C(/C=C/Nc2ccccc2Cl)C(C)(C)c2ccccc21, the Potency was inconclusive: 79.4 µM [inhibitor, partial curve, poor fit]. In the case of Cc1cc(O)c(C(=O)/C=C/c2cccc([N+](=O)[O-])c2)c(=O)o1, the Potency is reported as active: 79.4 µM. For C[C@H](NC(=O)c1nc[nH]c1C(=O)NCc1ccc(CNC(=O)OC(C)(C)C)cc1)C(=O)OC(C)(C)C, the Potency was inconclusive: 79.4 µM [inhibitor, partial curve, poor fit]. For C=CCn1c(=S)[nH]c2sc3c(c2c1=O)CCC3, the Potency was inconclusive: 100 µM [inhibitor, partial curve, poor fit]. CCOC(=O)c1cc(-c2cc3ccccc3o2)nc2c1c(=O)[nH]c(=O)n2CCOC was tested, and the Potency was inconclusive: 11.2 µM [inhibitor, partial curve]. With CCCCCCCC1CC(=O)C=C(C)C1C(=O)OCC (stereo not drawn) the Potency was inconclusive: 89.1 µM [inhibitor, single point]. With COc1ccc(OC)c(NC(=O)COC(=O)c2cc3c(s2)CCC3)c1 the Potency was active: 10 µM. CCc1ccc2nc3c(c(C(=O)O)c2c1)CCC3 was tested, and the Potency was inconclusive: 79.4 µM [inhibitor, single point]. CCOc1cccc(/C=C/C(=O)O)c1 was tested, and the Potency was inconclusive: 3.16 µM [inhibitor, full curve, poor fit]. For Cc1c(Cl)cnc(NC(=O)CSc2nncs2)c1Cl, the Potency was inconclusive: 28.2 µM [inhibitor, single point]. In the case of COCC(O)CNc1ccccc1 (stereo not drawn), the Potency is reported as inconclusive: 89.1 µM [inhibitor, partial curve, poor fit]. For CC(C)CN(CCNC(=O)c1cc(-c2ccc(Cl)s2)nc2ccccc12)CC(C)C, the “activity change, negative = inhibition” value was inactive: -1.06%. In the case of COc1ccccc1NC(=O)COC(=O)c1ccc(S(=O)(=O)NCc2ccco2)cc1, the Potency is reported as inconclusive: 20 µM [inhibitor, partial curve]. In the case of Cc1cc(OCC(=O)N[C@@H](Cc2ccccc2)c2nc3ccccc3[nH]2)ccc1Cl, the Potency is reported as inconclusive: 14.1 µM [inhibitor, partial curve, poor fit]. With CCCCN1C(=O)C(=O)c2cc(Cl)ccc21 the “activity change, negative = inhibition” value was inactive: -22%. In the case of O=c1c(-c2c(O)cc(O)c3c(=O)cc(-c4ccc(O)cc4)oc23)c(-c2ccc(O)cc2)oc2cc(O)cc(O)c12, the Potency is reported as active: 3.55 µM. In the case of COc1ccc([C@@H]2CC(=O)c3c(O)cc(O[C@@H]4O[C@H](CO[C@@H]5O[C@@H](C)[C@H](O)[C@@H](O)[C@H]5O)[C@@H](O)[C@H](O)[C@H]4O)cc3O2)cc1O, the Potency is reported as inconclusive: 89.1 µM [inhibitor, single point]. For Cc1cccc(/C=C2\CCC(=C3SCCCS3)C2=O)c1, the Potency was inconclusive: 31.6 µM [inhibitor, partial curve, poor fit]. With CC(=O)N(CCC(Cc1ccccc1)c1ccco1)Cc1ccco1 (stereo not drawn) the Potency was active: 50.1 µM. For CCOC(=O)C1=C(N)n2c(s/c(=C/c3ccco3)c2=O)=C(C(=O)OC)C1c1ccco1 (stereo not drawn), the Potency was inconclusive: 39.8 µM [inhibitor, single point]. In the case of CCC(C)(C)C1CCc2c(sc(NC(=O)c3ccccc3C(=O)O)c2C#N)C1 (stereo not drawn), the Potency is reported as inconclusive: 89.1 µM [inhibitor, single point]. For CCCOc1cccc(-c2nnc(NC(=O)c3ccco3)s2)c1, the Potency was inconclusive: 22.4 µM [inhibitor, full curve, poor fit]. For Cc1csc(=O)n1CCC(=O)OCC(=O)Nc1ncc(Cl)cc1Cl, the Potency was active: 22.4 µM. O=C(O)C1=C[C@@H](c2ccc(Br)cc2)C[C@@H](OCCCCO)O1 was tested, and the “activity change, negative = inhibition” value was inactive: -15.2%. In the case of O=C(COc1ccccc1[N+](=O)[O-])N/N=C/c1ccc(O)c([N+](=O)[O-])c1, the Potency is reported as inconclusive: 28.2 µM [inhibitor, full curve]. For Cc1nn(CC(=O)NCCCc2ccccc2)c(=O)c2cccn12, the “activity change, negative = inhibition” value was inactive: -9.12%. With Cc1cc(C)nc(SCc2nnc(SCC(=O)NCc3ccco3)n2-c2ccccc2)n1 the Potency was inconclusive: 100 µM [inhibitor, partial curve, poor fit]. O=C(NCCc1ccccc1)C1CCCN1C(=O)Nc1cccc(Cl)c1 (stereo not drawn) was tested, and the Potency was inconclusive: 31.6 µM [inhibitor, partial curve, poor fit]. With CCOC(=O)c1ccccc1NC(=O)COC(=O)CCC1CCCC1 the Potency was inconclusive: 0.631 µM [inhibitor, full curve, poor fit]. In the case of CCN1C(=O)/C(=C/c2cccs2)S/C1=N\S(=O)(=O)c1ccc(C)cc1, the “activity change, negative = inhibition” value is reported as inactive: -18.1%. c1ccc2oc(-c3nn4c(Cn5cnc6ccccc65)nnc4s3)cc2c1 was tested, and the Potency was inconclusive: 63.1 µM [inhibitor, partial curve, poor fit]. For CC1=C/C(=C/N(C)c2ccccc2)C(=O)S1, the Potency was inconclusive: 28.2 µM [inhibitor, full curve]. With CC(O)(CS(=O)(=O)Cc1ccccc1)c1ccc(Cl)cc1 (stereo not drawn) the Potency was inconclusive: 39.8 µM [inhibitor, partial curve, poor fit]. Cc1c(OCC(=O)C(C)(C)C)ccc2c(-c3ccccc3)cc(=O)oc12 was tested, and the Potency was inconclusive: 89.1 µM [inhibitor, partial curve, poor fit]. In the case of Cc1ccccc1NC(=S)NC(=O)/C=C/c1ccco1, the Potency is reported as active: 17.8 µM. COc1ccc2[nH]c(O)c(N=NC(=O)Cc3cccs3)c2c1 was tested, and the Potency was active: 31.6 µM. For CNc1ccccc1, the “activity change, negative = inhibition” value was inactive: -13.5%. In the case of Cc1ccnc(NS(=O)(=O)c2ccc(NC(=O)c3nc(SC(C)C)ncc3Cl)cc2)n1, the Potency is reported as inconclusive: 89.1 µM [inhibitor, single point]. CC(C)(C)CC(C)(C)SSc1n[nH]c(=S)s1 was tested, and the Potency was inconclusive: 44.7 µM [inhibitor, partial curve]. In the case of CCN1C(=O)[C@H]2[C@@H](c3ccc(C)cc3)N[C@]3(CCCN(Cc4ccc(C)cc4)C3=O)[C@H]2C1=O, the Potency is reported as inconclusive: 100 µM [inhibitor, single point]. With COc1cccc(CNC(=O)c2ccc3c(c2)nc2n3CCC(C)C2)c1OC (stereo not drawn) the “activity change, negative = inhibition” value was inactive: -0.0392%. In the case of COC(=O)c1cc(NC(=O)/C=C/c2ccc3c(c2)OCO3)cc(C(=O)OC)c1, the Potency is reported as inconclusive: 31.6 µM [inhibitor, single point]. CC(C)CC(C(=O)Nc1oc(-c2ccco2)c(-c2ccco2)c1C#N)N1C(=O)c2ccccc2C1=O (stereo not drawn) was tested, and the Potency was active: 20 µM. In the case of Cc1ccc(N=C2S/C(=C\c3cn(CC(=O)O)c4ccccc34)C(=O)N2C)cc1, the Potency is reported as inconclusive: 28.2 µM [inhibitor, partial curve]. In the case of O=C(CSc1nc2c(c(=O)[nH]1)CN(Cc1ccc3c(c1)OCO3)CC2)Nc1ccc(F)c(F)c1, the Potency is reported as inconclusive: 100 µM [inhibitor, partial curve, poor fit]. In the case of Cc1ccc(C)c(NC(=O)Nc2cccc(-c3cn4cccnc4n3)c2)c1, the Potency is reported as inconclusive: 79.4 µM [inhibitor, partial curve, poor fit]. With CCOC(=O)N1CCN(C(=O)CSCc2nc(-c3ccccc3C)oc2C)CC1 the “activity change, negative = inhibition” value was inactive: -6.99%. With Cc1ccc(NC(=O)CS(=O)CC(=O)NC(C)CCc2ccco2)cc1Cl (stereo not drawn) the Potency was inconclusive: 39.8 µM [inhibitor, single point]. In the case of CCC(C)Oc1cccc(C(=O)Nc2ccccc2N2CCOCC2)c1 (stereo not drawn), the Potency is reported as inconclusive: 28.2 µM [inhibitor, partial curve, poor fit]. COc1ccc(/C=C2\SC(=O)N(CC(=O)NNC(=O)c3ccccc3O)C2=O)cc1OC was tested, and the Potency was inconclusive: 35.5 µM [inhibitor, partial curve, poor fit].
% is set by controls: 0 for no effect and ±100 for the full control effect; potency is the fitted concentration of half-maximal effect; tags give direction and shape of the fitted curve.
